# Reference: the antibiotic and cytotoxicity screens of Wong et al. (2023)
# Some of the results follow.
# Tested on: HSkMC (human skeletal muscle cells)
# Experiment: cytotoxicity call (relative viability < 0.9)
# Settings: 10 µM
row,SMILES,cytotoxicity call
1,CSc1nc(Cl)cc(Cl)n1,inactive
2,C[C@H](CO)N1C[C@H](C)[C@@H](CN(C)C(=O)Nc2ccc(C(F)(F)F)cc2)Oc2c(NS(C)(=O)=O)cccc2C1=O,inactive
3,COc1ccc(S(=O)(=O)N(C)C[C@H]2Oc3ccc(NS(=O)(=O)c4ccc(C)cc4)cc3C(=O)N([C@H](C)CO)C[C@@H]2C)cc1,inactive
4,C[C@@H]1CN([C@@H](C)CO)S(=O)(=O)c2ccc(C#Cc3cccnc3)cc2O[C@@H]1CN(C)CC1CCOCC1,inactive
5,CC(C)NC(=O)N(C)C[C@@H]1Oc2c(NC(=O)C3CCOCC3)cccc2C(=O)N([C@@H](C)CO)C[C@H]1C,inactive
6,CC[C@@H](CO)NC(=O)c1ccc(N)cc1,inactive
7,C[C@@H]1CCCCO[C@H](CN(C)S(=O)(=O)c2cccs2)[C@@H](C)CN([C@H](C)CO)C(=O)c2cc(NC(=O)c3ccccc3)ccc2O1,inactive
8,Cc1ccc(C(=O)Oc2ccc(/C=N/c3cccs3)cc2)cc1,inactive
9,Cc1ccc(-c2ccc3c(c2)O[C@@H](CN(C)C(=O)Nc2ccc(C(F)(F)F)cc2)[C@H](C)CN([C@@H](C)CO)S3(=O)=O)cc1,inactive
10,C[C@@H]1CN([C@H](C)CO)C(=O)c2cccc(NC(=O)c3cnccn3)c2O[C@H]1CN(C)S(=O)(=O)c1ccc(F)cc1,inactive
11,CN1CCN(C(=O)C[C@H]2CC[C@@H]3[C@H](COC[C@H](O)CN3CC3CCCC3)O2)CC1,inactive
12,C[C@H](CO)N1C[C@H](C)[C@@H](CN(C)CC2CCCCC2)Oc2ccc(NC(=O)CCN3CCOCC3)cc2CC1=O,inactive
13,C[C@@H]1CN([C@@H](C)CO)C(=O)c2cc(NS(=O)(=O)c3ccc(F)cc3)ccc2O[C@H]1CN(C)Cc1ccncc1,inactive
14,C[C@@H]1CN([C@H](C)CO)C(=O)c2cc(NC(=O)c3ccncc3)ccc2O[C@@H]1CN(C)Cc1ccc(-c2ccccc2)cc1,inactive
15,CC(C)NC(=O)N(C)C[C@H]1Oc2ccc(NC(=O)CCC(F)(F)F)cc2CC(=O)N([C@@H](C)CO)C[C@@H]1C,inactive
16,C[C@@H]1CN([C@H](C)CO)C(=O)c2cc(NS(=O)(=O)c3ccccc3)ccc2O[C@@H](C)CCCCO[C@@H]1CN(C)C(=O)c1ccccc1,inactive
17,C[C@@H]1CCCCO[C@H](CN(C)Cc2ccccc2)[C@H](C)CN([C@@H](C)CO)C(=O)c2cc(NS(=O)(=O)c3ccc(F)cc3)ccc2O1,inactive

row,SMILES,cytotoxicity call
1,O=C(CN1CCOCC1)NCC[C@@H]1CC[C@@H](NS(=O)(=O)c2ccc(F)cc2)[C@@H](CO)O1,inactive
2,COc1ccccc1S(=O)(=O)N[C@@H]1C=C[C@@H](CC(=O)N2CCN(C)CC2)O[C@H]1CO,inactive
3,C[C@@H]1CN([C@@H](C)CO)C(=O)c2cc(NC(=O)Nc3ccc(F)cc3)ccc2O[C@@H](C)CCCCO[C@H]1CN(C)Cc1ccc(Cl)c(Cl)c1,inactive
4,CN(C)c1nc(N)nc(Cn2ccnc2)n1,inactive
5,O=C(C[C@H]1CC[C@@H]2[C@H](COC[C@H](O)CN2S(=O)(=O)c2ccccc2)O1)N[C@H]1CCN(Cc2ccccc2)C1,inactive
6,CC(C)NC(=O)Nc1ccc2c(c1)C(=O)N([C@H](C)CO)C[C@H](C)[C@@H](CN(C)C(=O)Nc1ccc(C(F)(F)F)cc1)OCCCC[C@@H](C)O2,inactive
7,COCC(=O)N(C)C[C@H]1Oc2cc(C#CC(C)(C)O)ccc2S(=O)(=O)N([C@@H](C)CO)C[C@H]1C,inactive
8,C[C@H]1CN([C@@H](C)CO)C(=O)c2c(c3ccccc3n2C)-c2ccccc2CO[C@@H]1CN(C)C(=O)CCC(F)(F)F,inactive
9,NC(=O)c1cccnc1N1CCN(C(=O)[C@@H]2CC(=O)N(C3CC3)C2)CC1,inactive
10,C[C@@H]1CN([C@H](C)CO)S(=O)(=O)c2ccc(C#Cc3ccccc3)cc2O[C@H]1CN(C)S(=O)(=O)c1cn(C)cn1,inactive
11,C[C@@H]1CN([C@@H](C)CO)C(=O)c2cc(C#CC3(O)CCCC3)cnc2O[C@H]1CN(C)C(=O)Cc1ccncc1,inactive
12,CCN1C(=O)CS/C1=N\N1CCOCC1,inactive
13,Nc1ncnc2c1ncn2[C@H]1O[C@@H](CO)[C@H](O)[C@@H]1S,inactive
14,COC(=O)C(Cc1ccccc1)NC(=O)C(N)CC(=O)O (stereo not drawn),inactive
15,CC(=O)O[C@@H]1[C@@H]2OC(=O)[C@H](OC(C)=O)[C@@H]2O[C@H]1n1ccc(=O)[nH]c1=O,inactive
16,C[C@@H]1CCCCO[C@@H](CN(C)CC2CC2)[C@@H](C)CN([C@H](C)CO)C(=O)c2cc(NC(=O)NC3CCCCC3)ccc2O1,inactive
